Data on 172 sequences can be found in paper PMC10668032.

The list shows a part of the results. At the low end of the ranking the order means little.

The target of the assay is SIX1-Q177R homeodomain (UniProt Q15475). In words: universal protein binding microarray. The conditions noted are these: Universal all-10-mer PBM (8x60K, AMADID 030236), 300 nM GST-tagged protein, Alexa Fluor 488 anti-GST; buffer, salt, pH and temperature not stated; high values mean tight binding; most listed sequences are background and not binding sites; double strand, one strand shown.
On to AATGGAGC, for which the binding signal was 0.0378 E-score.

On to ACCTACAA, for which the binding signal was -0.0104 E-score.

As for CTAGCTGC, the binding signal is -0.217 E-score.

Turning to CATTTTTA, the binding signal is -0.259 E-score.

In the case of AACGACCG, the binding signal is -0.155 E-score.

Take AGGGAGAG: the binding signal is 0.00599 E-score.

Turning to ATATGCGA, the binding signal was -0.072 E-score.

GACCGTCC: the binding signal was -0.177 E-score.

With TGGACGAA, the binding signal is -0.175 E-score.

On to GAAGCGTA, for which the binding signal is -0.0186 E-score.

Consider TCATTCAA, for which the binding signal is -0.199 E-score.

As for TACCAGGA, the binding signal was -0.132 E-score.

For CCGAGATC, the binding signal is 0.0702 E-score.

On to AGTTTATA, for which the binding signal is -0.0815 E-score.

Regarding ATCTTCGG, the binding signal is -0.11 E-score.

Turning to TGACGAAA, the binding signal is -0.154 E-score.

Turning to GGATTTAA, the binding signal is -0.0303 E-score.

As to GTCCACCA, the binding signal was -0.0755 E-score.

CGGTCGAG: the binding signal was -0.17 E-score.

As to GTGGTTAA, the binding signal was -0.074 E-score.

With TCCATTAA, the binding signal was found to be 0.0112 E-score.

In the case of CGCCACAC, the binding signal worked out at 0.314 E-score.

For GACGTGAC, the binding signal was -0.0736 E-score.

In the case of CAACGCCG, the binding signal came to 0.164 E-score.

Take GCGTTAGC: the binding signal was found to be 0.0223 E-score.

For the sequence GGCTTGAC, the binding signal was -0.118 E-score.

Take ATAACGAT: the binding signal is -0.213 E-score.

As to GACCTCGC, the binding signal is -0.0734 E-score.

Consider TGAACCCA, for which the binding signal stood at 0.0794 E-score.

With ATTAGTCC, the binding signal was -0.0448 E-score.

For ACGCAAAA, the binding signal was -0.126 E-score.

With CCTCTGTA, the binding signal turned out to be 0.105 E-score.

As for AAGCGAGC, the binding signal is -0.164 E-score.

CATTGCGC: the binding signal was -0.296 E-score.

As for CGAGCGGA, the binding signal was 0.0262 E-score.

Take AGAAACCC: the binding signal came out at 0.12 E-score.

For the sequence ATGACATA, the binding signal was -0.132 E-score.

Turning to AGTCCATG, the binding signal was 0.0133 E-score.

CCGACGAG: the binding signal was 0.0274 E-score.

For GAACAAGC, the binding signal is -0.263 E-score.

ACTTCACC: the binding signal is -0.0762 E-score.

Regarding CATTACGG, the binding signal was -0.0785 E-score.

As to AATATAGC, the binding signal is -0.0964 E-score.

Take GGTTATTA: the binding signal is -0.0411 E-score.

For AACGGCTT, the binding signal is -0.248 E-score.

For the sequence GCAGTGAA, the binding signal is -0.197 E-score.

Take CAAGCCCC: the binding signal was 0.00103 E-score.

With ACAATCAA, the binding signal is -0.0826 E-score.

With TCACGGCA, the binding signal was -0.179 E-score.

As to AACTGTAC, the binding signal is -0.189 E-score.

AGGAGTCG: the binding signal was 0.0884 E-score.

Take TATCACAA: the binding signal is -0.00421 E-score.

Turning to TACCCCGA, the binding signal was found to be 0.221 E-score.

On to CGCTCGCC, for which the binding signal is -0.0434 E-score.

Regarding ATAACTTC, the binding signal is -0.133 E-score.

On to AGCGAACT, for which the binding signal was -0.038 E-score.

For the sequence ATCGACTC, the binding signal turned out to be 0.201 E-score.

With AGGTGCGC, the binding signal was -0.0123 E-score.

With AGCCCTCG, the binding signal was -0.22 E-score.

Consider CCGACTAG, for which the binding signal is -0.127 E-score.

With CGCATTCA, the binding signal is -0.101 E-score.

As for CATCGTAG, the binding signal was 0.0737 E-score.

For the sequence AAAAGGTC, the binding signal was -0.164 E-score.

For the sequence ACAGGCGG, the binding signal is -0.0143 E-score.

Regarding ACTTTGCA, the binding signal was -0.0264 E-score.

Take ATCCAATC: the binding signal is -0.147 E-score.

Consider CGATGTTC, for which the binding signal was -0.08 E-score.

Turning to GCAGCTAC, the binding signal was -0.16 E-score.

As for ATAGGTTA, the binding signal turned out to be 0.0205 E-score.

Regarding ACTCATAG, the binding signal came to 0.112 E-score.

On to GCACGTAA, for which the binding signal is -0.000275 E-score.

Regarding ATCTAGAG, the binding signal is -0.139 E-score.

For the sequence AACTAAAC, the binding signal is -0.0335 E-score.

Consider ACCATCTC, for which the binding signal amounted to 0.111 E-score.

Take GAAGATCC: the binding signal is -0.0256 E-score.

In the case of GAGATCGA, the binding signal was -0.0684 E-score.

Take GAACCTTA: the binding signal was -0.132 E-score.

On to TTAATGAA, for which the binding signal was -0.0752 E-score.

As for CCCAGCGA, the binding signal was 0.0944 E-score.

With ATTCGGTA, the binding signal was determined as 0.0586 E-score.

Consider CACCACCA, for which the binding signal came out at 0.329 E-score.

For GACTTCTC, the binding signal was -0.391 E-score.

For GCGATGCA, the binding signal is -0.223 E-score.

As for ATATTGGC, the binding signal is -0.0857 E-score.

Take ACGTGCAT: the binding signal is -0.0601 E-score.

Consider ATCTTTTC, for which the binding signal is -0.196 E-score.

With CAGAGGTA, the binding signal is -0.0745 E-score.

Take AACTCATG: the binding signal was -0.098 E-score.

As for GGGGATGA, the binding signal was 0.133 E-score.

Consider TCGAACCA, for which the binding signal was -0.0554 E-score.

As to ATGCCAAG, the binding signal is 0.162 E-score.

With ACTTCAAT, the binding signal was 0.126 E-score.

On to CCGTAGAA, for which the binding signal is -0.0488 E-score.

Regarding AAGGCGCC, the binding signal was -0.104 E-score.

On to CCGCCGGC, for which the binding signal is 0.0187 E-score.

CCGCCCAC: the binding signal stood at 0.0869 E-score.

With AGAGCTTC, the binding signal is -0.131 E-score.

CGTGATAA: the binding signal was -0.042 E-score.

Regarding ATAAGTGG, the binding signal was -0.0441 E-score.

Regarding AAAGGGAA, the binding signal is -0.134 E-score.

On to CACGTTAA, for which the binding signal is -0.0216 E-score.

On to AGCGCATA, for which the binding signal is -0.0655 E-score.

CCCGGGTC: the binding signal is 0.335 E-score.

Take CGTGCTTC: the binding signal came to 0.00285 E-score.

On to GGGGCCCA, for which the binding signal is -0.177 E-score.

For CAAGCTGC, the binding signal is -0.227 E-score.

For the sequence TTCAGCAA, the binding signal was -0.0193 E-score.

Take GAACCGCA: the binding signal is -0.131 E-score.

In the case of ACAATTCC, the binding signal is -0.12 E-score.

In the case of CCCTCTCC, the binding signal is -0.0473 E-score.

GCTGTCCC: the binding signal is -0.189 E-score.

As for CCCTGACG, the binding signal came out at 0.152 E-score.

On to AGCAGACT, for which the binding signal is -0.157 E-score.

For the sequence CAACGCTA, the binding signal came to 0.07 E-score.

Consider GTACGAAA, for which the binding signal is -0.076 E-score.

In the case of CGGCATCA, the binding signal is -0.128 E-score.

As for GGAACGTA, the binding signal was -0.00415 E-score.

As for AGGGGACC, the binding signal amounted to 0.0592 E-score.

As for CGTAGAGA, the binding signal is -0.268 E-score.

As to GCGCCCTA, the binding signal was -0.0551 E-score.

Consider GGTTTGGA, for which the binding signal amounted to 0.0144 E-score.

Turning to CCATAGGG, the binding signal was 0.154 E-score.

Turning to CATTAAGA, the binding signal was -0.181 E-score.

Turning to TAAGCTTA, the binding signal worked out at 0.0641 E-score.

Regarding AGGACGAG, the binding signal came out at 0.0747 E-score.

Consider CCGAATTA, for which the binding signal worked out at 0.0295 E-score.

For CCTATAGC, the binding signal was -0.0348 E-score.

AATGATCG: the binding signal was -0.189 E-score.

On to AACCCCCC, for which the binding signal is 0.308 E-score.

GCGAGGAC: the binding signal is -0.0768 E-score.

Regarding CCTCGCTA, the binding signal is -0.0181 E-score.

Turning to AATATATC, the binding signal is -0.105 E-score.

Regarding CAAACGGG, the binding signal worked out at 0.0374 E-score.

Turning to AATTTTTC, the binding signal was -0.0225 E-score.

For GGAGCCGA, the binding signal was 0.00907 E-score.

In the case of AATGGTAG, the binding signal was -0.0146 E-score.

In the case of ACACGTGA, the binding signal was 0.34 E-score.

On to AAATGAGG, for which the binding signal is -0.228 E-score.

As to ACGTTGGA, the binding signal is -0.0118 E-score.

For CGTCGACG, the binding signal is -0.202 E-score.

As to ACGCTCCA, the binding signal was -0.0758 E-score.

Turning to TAAGAGCA, the binding signal was found to be 0.0883 E-score.

For CTACGTAG, the binding signal is -0.195 E-score.

ACGTGGAA: the binding signal was -0.0611 E-score.

Consider GATGAGAA, for which the binding signal was -0.182 E-score.

As to CAGCTTGA, the binding signal is -0.0231 E-score.

Take GCTGCTTA: the binding signal was -0.0529 E-score.

Regarding CGTCAAAC, the binding signal came out at 0.0535 E-score.

For the sequence TCACCGAA, the binding signal was 0.125 E-score.

For AGGGTGAC, the binding signal stood at 0.035 E-score.

Consider ACACGTCG, for which the binding signal is 0.323 E-score.

With CTCATTCA, the binding signal is -0.144 E-score.

For the sequence AGATGTAA, the binding signal was -0.147 E-score.

On to ATGGCGGG, for which the binding signal came out at 0.118 E-score.

For CCAACCTC, the binding signal was -0.029 E-score.

On to GCTTGCGA, for which the binding signal was -0.15 E-score.

Regarding GCGGCAGC, the binding signal was -0.284 E-score.

Regarding AATGGCGG, the binding signal was -0.083 E-score.

Take CAAGACGC: the binding signal was -0.0252 E-score.

In the case of ACAGATAA, the binding signal is -0.039 E-score.

On to GAGCCCAA, for which the binding signal is -0.283 E-score.

In the case of AGTCCGCG, the binding signal is -0.145 E-score.

In the case of GGTGGCAA, the binding signal is -0.151 E-score.

GGATATGA: the binding signal was found to be 0.0813 E-score.

Turning to CAAACGCA, the binding signal was -0.0779 E-score.

As for AAACGGGT, the binding signal was 0.136 E-score.

Take AGTGATAA: the binding signal is -0.236 E-score.

On to CCGCACTA, for which the binding signal is 0.13 E-score.

Consider ACCTTTGC, for which the binding signal turned out to be 0.043 E-score.

Take CTCCTCAG: the binding signal was -0.012 E-score.

Turning to AGAATGTA, the binding signal was -0.16 E-score.

On to CACGTCAC, for which the binding signal was found to be 0.16 E-score.
